{
  "source": "paper PMC6919601",
  "about": "“Identification of Plasmodium dipeptidyl aminopeptidase allosteric inhibitors by high throughput screening” (PLoS ONE, 2019)",
  "note": "Among all 110,000 compounds or so, about 230 (0.21%) showed an effect of 50% or more. The list shows a part of the results.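 Note: 30 min substrate incubation versus DMSO and 10 µM JCP410 controls.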",
  "data": [
    {"target": "DPAP1 (Plasmodium falciparum, UniProt Q8IIJ9)", "sequence (Q8IIJ9 whole entry, looked up)": "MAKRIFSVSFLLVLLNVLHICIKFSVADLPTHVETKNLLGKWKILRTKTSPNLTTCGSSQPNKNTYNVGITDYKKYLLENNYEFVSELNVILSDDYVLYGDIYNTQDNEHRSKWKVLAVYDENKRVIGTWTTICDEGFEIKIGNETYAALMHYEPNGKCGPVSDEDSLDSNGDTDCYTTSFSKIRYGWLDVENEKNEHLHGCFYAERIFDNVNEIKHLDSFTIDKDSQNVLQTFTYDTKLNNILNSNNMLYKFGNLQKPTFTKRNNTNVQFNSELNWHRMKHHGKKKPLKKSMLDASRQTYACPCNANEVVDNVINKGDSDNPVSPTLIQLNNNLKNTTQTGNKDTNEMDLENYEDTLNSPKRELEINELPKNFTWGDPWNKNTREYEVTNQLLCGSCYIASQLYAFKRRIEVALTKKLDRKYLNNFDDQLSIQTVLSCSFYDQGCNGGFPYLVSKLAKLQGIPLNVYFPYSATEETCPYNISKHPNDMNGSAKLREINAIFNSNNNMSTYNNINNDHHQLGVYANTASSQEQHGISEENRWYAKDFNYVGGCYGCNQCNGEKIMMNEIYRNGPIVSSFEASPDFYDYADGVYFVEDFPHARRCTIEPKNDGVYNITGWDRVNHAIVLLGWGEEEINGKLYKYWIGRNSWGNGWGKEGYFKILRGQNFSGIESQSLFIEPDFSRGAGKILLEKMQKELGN", "assay": "primary screen, percent inhibition; read by cleavage of a fluorogenic dipeptide substrate; higher = more effect of the substance", "parameters": "species or system P. falciparum D10 trophozoite lysates; single well", "units": {"% Inhibition @ 10 uM": "%"}, "values": [
      {"smiles": "CCCN(CCO)Cc1ccc(F)cc1", "% Inhibition @ 10 uM": -4.14},
      {"smiles": "COCCNC(=O)CCCc1nnc2n(Cc3ccccc3)c(=O)c3ccccc3n12", "% Inhibition @ 10 uM": 1.68},
      {"smiles": "CCN1CCCC1CNC(=O)Cn1nc(C)n2cccc2c1=O", "note": "(centres unmarked)", "% Inhibition @ 10 uM": -8.41},
      {"smiles": "O=C(O)C(=O)N[C@@H](CC1CCCCC1)C(=O)N[C@@H](CCc1ccccc1)C(=O)c1nc2ccccc2o1", "% Inhibition @ 10 uM": -5.21},
      {"smiles": "Cn1cccc1CNCCCSc1nnnn1C", "% Inhibition @ 10 uM": 0.386},
      {"smiles": "CC(CNC(=O)c1cc(-c2ccco2)[nH]n1)c1ccccc1", "note": "(centres unmarked)", "% Inhibition @ 10 uM": -0.177},
      {"smiles": "CN(C)CCCN1CC(c2ccccc2)CC1=O", "note": "(centres unmarked)", "% Inhibition @ 10 uM": -2.62},
      {"smiles": "CCOC(=O)C1CCN(S(=O)(=O)c2ccc(NC(C)=O)cc2)CC1", "% Inhibition @ 10 uM": 2.58},
      {"smiles": "COc1ccc(OC)c(CCNCc2c(C(=O)O)c(C)n(Cc3ccccc3)c2C)c1", "% Inhibition @ 10 uM": -5.49},
      {"smiles": "CNS(=O)(=O)c1cn(CC(=O)N2CCC(N3CCCCC3)CC2)cc1S(=O)(=O)NC", "% Inhibition @ 10 uM": -0.341},
      {"smiles": "Cc1c2cnn(CC(=O)N3CCC(Cc4ccccc4)CC3)c(=O)c2c(C)n1Cc1ccccc1", "% Inhibition @ 10 uM": 1.22},
      {"smiles": "Cc1ccc(CNC(=O)CSCc2nc(-c3cccs3)oc2C)cc1", "% Inhibition @ 10 uM": -1.05},
      {"smiles": "O=S(=O)(Nc1nc(-c2ccccc2)cs1)c1ccc(Cl)cc1", "% Inhibition @ 10 uM": 1.21},
      {"smiles": "CSc1nc(Oc2cc(C)cc(C)c2)cc(-n2ncc(C#N)c2N)n1", "% Inhibition @ 10 uM": 5.9},
      {"smiles": "Clc1cccc(N2CCN(Cc3ccccc3Br)CC2)c1", "% Inhibition @ 10 uM": -5.41},
      {"smiles": "Cc1cnn(-c2nc(-c3ccc(F)cc3)cc(C(F)(F)F)n2)c1", "% Inhibition @ 10 uM": -3.12},
      {"smiles": "CC(C(=O)NCCc1ccc(Cl)cc1)n1sc2ccccc2c1=O", "note": "(centres unmarked)", "% Inhibition @ 10 uM": -9.85},
      {"smiles": "COc1ccc2c(Sc3ccc(C)cc3)c(C(=O)N3CCC4(CC3)OCCO4)[nH]c2c1", "% Inhibition @ 10 uM": 1.91},
      {"smiles": "CC1(C)CC(=O)C(/C=N/CCc2c[nH]c3ccccc23)=C(O)C1", "% Inhibition @ 10 uM": 1.96},
      {"smiles": "CC1CCN(C(=O)COc2ccc(-c3nn(C)c(=O)c4ccccc34)cc2)CC1", "% Inhibition @ 10 uM": 3.63},
      {"smiles": "CC(=O)N1CCn2c3ccc(C)cc3c3cccc1c32", "% Inhibition @ 10 uM": -5.98},
      {"smiles": "Cc1cccc(C(=O)c2cn[nH]c2-c2ccc(C)cc2O)c1", "% Inhibition @ 10 uM": 5.9},
      {"smiles": "CCOc1ccc(-n2nnc(C(=O)OC)c2C(=O)OC)cc1", "% Inhibition @ 10 uM": -3.39},
      {"smiles": "COc1ccc(N2CCN(Cc3ccc(NC(C)=O)cc3)CC2)cc1", "% Inhibition @ 10 uM": -1.07},
      {"smiles": "CC(NC(=O)c1cnccn1)c1ccccc1", "note": "(centres unmarked)", "% Inhibition @ 10 uM": -15.4},
      {"smiles": "[O-][n+]1cccc2c1-c1ccccc1/C2=N/O", "% Inhibition @ 10 uM": 3.06},
      {"smiles": "CC(C)C/C(=N\\O)c1cn(C)c2ccccc12", "% Inhibition @ 10 uM": -6.25},
      {"smiles": "O=C1c2ccccc2C(=O)N1CCSc1nc2ccccc2o1", "% Inhibition @ 10 uM": 1.03},
      {"smiles": "CCOC(=O)N1CCN(C(=O)CSCc2nc(-c3ccc(OC)c(OC)c3)oc2C)CC1", "% Inhibition @ 10 uM": 2.37},
      {"smiles": "Cc1ccc(-n2nc(C)c(/C=N/c3ccc(C(=O)N4CCOCC4)cc3)c2O)cc1", "% Inhibition @ 10 uM": -0.366},
      {"smiles": "Nc1cc(-c2ccccc2)ccc1C(=O)O", "% Inhibition @ 10 uM": 2.6},
      {"smiles": "COc1ccc(-c2cc(CCCC(=O)NCCc3ccc(Cl)cc3)no2)cc1", "% Inhibition @ 10 uM": -1.3},
      {"smiles": "C=Cc1ccc(Cn2c(C)c(CNCc3cc(OC)c(OC)c(OC)c3)c(C(=O)O)c2C)cc1", "% Inhibition @ 10 uM": 4.53},
      {"smiles": "COC(=O)C1=C(C)N=c2s/c(=C\\c3ccc(Cl)cc3)c(=O)n2C1c1ccccc1Cl", "note": "(centres unmarked)", "% Inhibition @ 10 uM": 2.78},
      {"smiles": "CCOCCc1nnc(NC(=O)C(=O)c2c[nH]c3ccccc23)s1", "% Inhibition @ 10 uM": -4.68},
      {"smiles": "CC(C)(C)c1cc(N)n2nc(C(C)(C)C)cc2n1", "% Inhibition @ 10 uM": -1.69},
      {"smiles": "Cc1ccc(C[C@H](NC(=O)OCc2ccccc2)C(=O)NCC#N)cc1", "% Inhibition @ 10 uM": -6.46},
      {"smiles": "COCCC/N=C/c1c(C)nn(-c2ccc(Br)c(C)c2)c1O", "% Inhibition @ 10 uM": 1.37},
      {"smiles": "C=CCN1C(=O)N/C(=C/c2ccccc2OCc2ccc(F)cc2)C1=O", "% Inhibition @ 10 uM": 2.6},
      {"smiles": "COc1ccc(CN2CCN(c3cccc(C(F)(F)F)c3)CC2)cc1C", "% Inhibition @ 10 uM": -7.6},
      {"smiles": "CC(C)N(Cc1nc(-c2ccc(Cl)cc2)no1)C(=O)NC1CCCCC1", "% Inhibition @ 10 uM": 1.67},
      {"smiles": "Cc1oc(CN2CCOCC2)cc1C(=O)O", "% Inhibition @ 10 uM": 5.1},
      {"smiles": "CCOC(=O)N1CCN(C(=O)COc2ccc3c(c2)C(=O)CC2(CCN(C(C)=O)CC2)O3)CC1", "% Inhibition @ 10 uM": 2.01},
      {"smiles": "Cc1ccc(N2CC(C(=O)Nc3ccccc3C(=O)NC3CCCCC3)CC2=O)cc1C", "note": "(centres unmarked)", "% Inhibition @ 10 uM": 3.49},
      {"smiles": "Cc1cc(C(=O)O)sc1C", "% Inhibition @ 10 uM": -0.256},
      {"smiles": "CCCOc1ccc(C2C3=C(O)CCCC3=NC(C)=C2C(=O)N2CCOCC2)cc1OC", "note": "(centres unmarked)", "% Inhibition @ 10 uM": 4.99},
      {"smiles": "Cc1ccc(C(=O)N/C(=C\\c2cccs2)C(=O)N2CCCCC2)cc1C", "% Inhibition @ 10 uM": -0.968},
      {"smiles": "COc1cc(/C=C2\\Sc3ccccc3C2=O)ccc1OC(C)=O", "% Inhibition @ 10 uM": 0.634},
      {"smiles": "Cc1cc(C)c2c(n1)sc1c(O)nnnc12", "% Inhibition @ 10 uM": 5.3},
      {"smiles": "C=CCn1c(-c2ccccc2Cl)nc2ccccc21", "% Inhibition @ 10 uM": 2.73},
      {"smiles": "CCC(Sc1nc(N)cc(O)n1)C(=O)Nc1ccc2ccccc2c1", "note": "(centres unmarked)", "% Inhibition @ 10 uM": -2.87},
      {"smiles": "c1ccc(Oc2cccc(CN3CCCCCC3)c2)cc1", "% Inhibition @ 10 uM": 0.605},
      {"smiles": "CCC(Sc1nc2cccnc2[nH]1)C(=O)NCCOC", "note": "(centres unmarked)", "% Inhibition @ 10 uM": 0.693},
      {"smiles": "COc1ccc(S(=O)(=O)Nc2ccc(F)c(F)c2)cc1", "% Inhibition @ 10 uM": 0.162},
      {"smiles": "CCOC(=O)c1sc2ncc([N+](=O)[O-])cc2c1N", "% Inhibition @ 10 uM": 1.9},
      {"smiles": "O=C(O)CC1C(=O)NCCN1Cc1ccc(F)cc1Cl", "note": "(centres unmarked)", "% Inhibition @ 10 uM": -1.11},
      {"smiles": "CCc1ccc(CNCc2c(C(=O)O)n(Cc3ccc(OC)cc3)c3cc(C)ccc23)cc1", "% Inhibition @ 10 uM": -5.43},
      {"smiles": "C=CCNC(=O)c1ccccc1NS(=O)(=O)c1ccc(OC)c(OC)c1", "% Inhibition @ 10 uM": 1.86},
      {"smiles": "COc1ccc(-c2cn3c4c(=O)n(C)c(=O)n(C)c4nc3n2-c2ccc(OC)c(OC)c2)cc1", "% Inhibition @ 10 uM": -1.11},
      {"smiles": "COCc1cc(C)nc2sc(C(=O)OC)c(N)c12", "% Inhibition @ 10 uM": 6.23},
      {"smiles": "O=C(NCc1ccccc1)c1cnc2ccc(S(=O)(=O)N3CCC4(CC3)OCCO4)cc2c1O", "% Inhibition @ 10 uM": -3.21},
      {"smiles": "COc1cccc(N(CC(=O)Nc2ccc(C)cc2C)S(C)(=O)=O)c1", "% Inhibition @ 10 uM": -1.43},
      {"smiles": "CCOc1ccccc1N1CCN(Cc2ccc(-c3ccccc3)cc2)CC1", "% Inhibition @ 10 uM": -1.77},
      {"smiles": "Cc1nc(N2CCCCCC2)c2ccccc2n1", "% Inhibition @ 10 uM": -1.12},
      {"smiles": "N#Cc1c(C(F)(F)F)cc(-c2cccs2)nc1S", "% Inhibition @ 10 uM": 88.5}
    ]}
  ]
}
